PubChem BioAssay AID1814 (Broad Institute, 2009)
Among all 300,000 compounds or so, about 22,000 (7.3%) were called active. The inconclusive results got no clear call from the source; some entries with a clear call stand among them for comparison. No stated cut-off is given here; in the data, active means activity score below about -60%; inconclusive means mostly about -28% to -61%; inactive means positive scores.

Test: Activators via SNCA 5'UTR binding, MLPCN (AID 1814)
Conditions: alpha-synuclein 5'UTR reporter, activators screen; hits give low values; tested at 7.5 µM
For `Cn1cccc1C(=O)Nc1nccs1`, the activity score was inconclusive: -55.5%.
In the case of `CC(/C=N/NC(=O)CSc1ccccn1)=C\c1ccc(C(C)C)cc1`, the activity score is reported as active: -254%.
In the case of `CC1CCN(Cc2c(C(=O)N/N=C/c3cc(Cl)ccc3O)nnn2-c2nonc2N)CC1`, the activity score is reported as inactive: 62.1%.
In the case of `COCCCC1CCN(Cc2nc(-c3ccccc3)no2)CC1`, the activity score is reported as inconclusive: -54.2%.
In the case of `CCC(=O)NNc1nc2c(C)c(C)ccc2s1`, the activity score is reported as inconclusive: -51.1%.
In the case of `O=C(NC(=S)NCC1CCCO1)c1ccc(Cl)cc1` (stereo unspecified), the activity score is reported as active: -106%.
With `N#C/C(=C/c1ccc(-c2ccc(Br)cc2)o1)C(=O)NC1CCCCC1` the activity score was inconclusive: -51.3%.
For `Cc1nnc(SCc2c(Cl)cccc2Cl)s1`, the activity score was inconclusive: -58.9%.
In the case of `COCCn1c(C)cc(/C=N/NC(=O)c2cccnc2)c1C`, the activity score is reported as inconclusive: -41.2%.
With `O=C(c1cccc(COc2cccc3ccccc23)c1)N1CCCC1` the activity score was inconclusive: -44.4%.
In the case of `Cc1cccc(NC(=O)c2nc(S(=O)(=O)Cc3ccccc3)ncc2Cl)c1`, the activity score is reported as inactive: 84.8%.
With `CCCOc1ncnc2c1[nH]c1ccc(C)cc12` the activity score was active: -92.2%.
For `CC1(C)OC(=O)C(=CNC(CO)C(=O)O)C(=O)O1` (stereo unspecified), the activity score was inconclusive: -47.2%.
In the case of `Cc1[nH]n(C2=NCCS2)c(=O)c1N=Nc1cccc(C(F)(F)F)c1`, the activity score is reported as inactive: 66.6%.
With `CC(=O)Nc1ccc2oc(-c3cc(F)c(F)cc3Cl)nc2c1` the activity score was inactive: 61%.
With `Cc1cc(C(=O)COc2ccccc2C#N)c(C)n1C1CC1` the activity score was inconclusive: -44.7%.
For `CC(=O)Oc1ccc(/C=N/NC(=S)Nc2ccccc2)cc1`, the activity score was active: -149%.
With `COc1ccc(-c2cc3nc(C)n(N)c(=O)c3s2)cc1` the activity score was inactive: 115%.
For `Cc1oc2c(c1C(=O)c1ccccc1)C(=O)C(=O)c1ccccc1-2`, the activity score was inactive: 127%.
In the case of `O=C(N/N=C\c1cc(Cl)ccc1O)c1ccc(S(=O)(=O)N2CCCCC2)cc1`, the activity score is reported as inactive: 113%.
In the case of `COc1ccc(OC)c(C2C3=C(N=c4s/c(=C\c5cccc(O)c5)c(=O)n42)c2ccccc2CC3)c1` (stereo unspecified), the activity score is reported as inactive: 58.4%.
In the case of `COC(=O)c1ccc2nc(-c3ccc4c(c3)OCO4)cn2c1`, the activity score is reported as inactive: 95.2%.
For `COc1ccccc1NC(=O)N(Cc1ccco1)Cc1cc2ccc(C)c(C)c2[nH]c1=O`, the activity score was inactive: 50.8%.
In the case of `COc1cccc(Oc2nccc(N(C)C)c2C#N)c1`, the activity score is reported as inconclusive: -48.7%.
With `O=C(CN1C(=O)c2ccccc2S1(=O)=O)c1ccccc1F` the activity score was inactive: 82.3%.
For `CCCOc1ccc(-c2csc3nc[nH]c(=O)c23)cc1`, the activity score was active: -159%.
For `O=[N+]([O-])c1cc(Cl)cc(/C=N\Nc2ccccn2)c1O`, the activity score was inactive: 89.9%.
With `CCCC(C)C(=O)Nc1nc(C)c(-c2csc(Nc3ccc(Cl)cc3)n2)s1` (stereo unspecified) the activity score was inconclusive: -39.1%.
With `CC1=NN(c2ccc(Cl)cc2)C(=O)C1C(c1ccccc1O)c1c(C)[nH]n(-c2ccc(Cl)cc2)c1=O` (stereo unspecified) the activity score was inconclusive: -58%.
In the case of `COc1ccc(NC(=O)CN(C)C(=O)c2n[nH]c3ccccc23)cc1`, the activity score is reported as inconclusive: -60.2%.
In the case of `O=C(CN1CCN(c2ccccc2)CC1)Nc1ccc2c(c1)CCC2`, the activity score is reported as inconclusive: -29.1%.
With `Cc1cc(C(=O)Nc2ccc3ccccc3c2)c(C)o1` the activity score was inconclusive: -47%.
In the case of `COc1cc(OC)cc(C(=O)NCC(=O)OCc2nc3ccccc3s2)c1`, the activity score is reported as active: -184%.
In the case of `O=C(NC(c1ccc(Cl)cc1)c1cc(Cl)c2cccnc2c1O)c1cccnc1` (stereo unspecified), the activity score is reported as inactive: 98%.
In the case of `CC(=O)c1ccccc1OCCOCCOCCOc1ccccc1C(C)=O`, the activity score is reported as inactive: 67.3%.
With `O=C1Nc2ccccc2N(O)N1c1ccc(Cl)cc1` the activity score was inconclusive: -57.4%.
For `O=S(=O)(c1ccccc1)N1CCC(Oc2ccc(-n3cnnn3)cc2)CC1`, the activity score was inconclusive: -39.2%.
For `COc1ccc(-c2c(C#N)c(N)nc(Sc3ccc(Cl)cc3)c2C#N)cc1`, the activity score was inactive: 57.5%.
With `O=C(NC(=S)Nc1ccc(C(F)(F)F)cc1)c1csnn1` the activity score was inconclusive: -55.2%.
In the case of `Cn1cc(Cl)c(C(=O)Nc2nc3ccc([N+](=O)[O-])cc3s2)n1`, the activity score is reported as active: -68%.
With `NC(=O)c1c(NC(=O)c2ccncc2)sc2c1CCCC2` the activity score was active: -121%.
In the case of `C/C(=N\NC(=O)c1cccc(S(=O)(=O)N2CCCC2)c1)c1cccs1`, the activity score is reported as inconclusive: -59.2%.
In the case of `C=CCSc1n[nH]c(-c2ccccc2)n1`, the activity score is reported as active: -100%.
With `O=C(Nc1nccs1)c1ccc(COc2ccccc2Cl)o1` the activity score was inconclusive: -50.3%.
For `COc1ccc(NC(=O)c2ccc3snnc3c2)cc1`, the activity score was active: -107%.
With `CCOC(=O)c1ccc2nc(NC(C)=O)sc2c1` the activity score was active: -126%.
In the case of `COCCn1c(C)cc(C(=O)COC(=O)c2cccc(O)c2)c1C`, the activity score is reported as inactive: 67.4%.
In the case of `Cc1cccc(C(=O)Nc2ccc(C(=O)/C=C/c3cccs3)cc2)c1`, the activity score is reported as active: -92.4%.
With `Cc1cc2n(n1)SC(Nc1cc(Cl)ccc1Cl)N2` (stereo unspecified) the activity score was inconclusive: -40.5%.
In the case of `O=C1c2ccccc2C(=O)C1c1nccc2ccccc12`, the activity score is reported as inactive: 98.9%.
With `CCOc1ccc(NC(=O)c2nnn(CC(=O)Nc3ccccc3OCC)c2N)cc1` the activity score was inconclusive: -34.2%.
With `Cc1ccc(CS(=O)(=O)c2ccc(C(=O)N3CCCCC3)cc2[N+](=O)[O-])cc1` the activity score was inconclusive: -39.4%.
In the case of `CC(C)OC(=O)CSc1nnc(-c2ccc(C(C)(C)C)cc2)n1N`, the activity score is reported as inconclusive: -56%.
With `CC(=C\c1ccccc1)/C=C1/SC(=S)N(CCCC(=O)O)C1=O` the activity score was inactive: 66.6%.
For `CCOC(=O)N1CCN(C(=O)c2ccc3nc(N4CCC(C)CC4)sc3c2)CC1`, the activity score was active: -124%.
In the case of `Cc1cc(N/N=C/c2ccc(O)cc2O)nc(-n2nc(C)cc2C)n1`, the activity score is reported as inactive: 71.8%.
With `Cc1ccc(C(=O)Nc2nc3ccccc3[nH]2)cc1` the activity score was inactive: 68.1%.
With `COc1ccc(C(=O)/C=C/C(=O)N(CC(=O)NC2CCCCC2)Cc2ccccc2OC)c(O)c1` the activity score was inconclusive: -36.2%.
In the case of `O=C(NNC(=O)c1ccccc1F)c1cccs1`, the activity score is reported as inconclusive: -47.3%.
In the case of `Cc1nc2cc3sc(C)nc3cc2s1`, the activity score is reported as inconclusive: -41.1%.
For `Cc1oc2c(O)c(O)ccc2c(=O)c1-c1ccccc1`, the activity score was inconclusive: -57.3%.
